The list shows a part of the results. At the low end of the ranking the order means little.
These sequences were tested against T1, GST-Rok-C97-191 (UniProt O34857) (assay: protein binding microarray). Conditions: Rok is a gene silencer of Bacillus subtilis; high values mean tight binding; most listed sequences are background and not binding sites; double strand, one strand shown.
T1 sequence: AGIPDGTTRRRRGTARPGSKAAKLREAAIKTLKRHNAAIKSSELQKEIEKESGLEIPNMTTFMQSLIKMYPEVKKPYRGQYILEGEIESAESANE
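Also: rank score from −0.5 (least bound) to 0.5 (best bound).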

Sequence | binding signal [E-score]
AATCACGA | -0.0422
AGTAAAGG | -0.114
CGGGTCTC | -0.0666
CCATGATC | -0.055
AATTAGCG | 0.203
CCTCCATA | -0.0411
CATGGCAG | -0.315
ATGTGACG | -0.144
AGGATAGG | 0.0759
CGGATGAA | 0.00172
GTACGTCA | -0.0688
CATGGAGG | -0.181
CAACCCGG | -0.249
ACAAACCC | -0.00398
AGGCTGTG | -0.00296
CCTACTCG | -0.00475
GTCGTATA | 0.0892
AACATTAA | 0.124
ACGAAGTA | -0.0414
AGGCACGG | -0.257
CCGCGCCC | -0.205
GTGACCAC | -0.266
ACTTATCA | 0.183
GTCTGCCA | -0.159
AGAGTATA | 0.261

Sequence | binding signal [E-score]
GCGCTGAA | -0.126
AAGACGCA | -0.0653
AAGTGGTG | -0.0322
CACTTTTA | 0.0588
AGTCAGTG | 0.0467
ATTTGACA | 0.138
GACCATGA | -0.0412
AATTAACC | 0.149
AGGTCGAT | -0.103
AGCAGGAC | -0.227
ATGAGTAC | 0.244
GGCACTAC | -0.0847
CCCCTCCG | -0.329
GTAGATAC | 0.381
ATATTACA | 0.304
ATTTCACA | 0.0633
GCGTCGAC | -0.139
GACAGAGA | -0.182
CAAGTATG | 0.0651
CCTCGGAA | -0.176
AGATCAAT | -0.0402
CTCCCCTC | -0.313
GACTTGTA | -0.0308
AATGACGG | 0.0284
AGATCAAC | -0.0585

Sequence | binding signal [E-score]
CGATCGGC | -0.244
AACTACTT | 0.392
CAGATACG | 0.0158
AACCGGTC | -0.217
TAGGAAAA | 0.0178
CGCAAACC | -0.00397
GAGAGCAC | -0.121
CATCAACA | 0.0558
GTTCTCGA | -0.0229
ATGCAGCG | 0.00717
CCTTGCTA | 0.00423
GCGCTTCA | -0.0571
CCGCCGCG | -0.271
ATCTGTCC | 0.0714
TGACCTAA | -0.00994
CGCCCTTC | -0.312
GTACACGA | 0.0762
GTATGGTA | 0.238
AAGGCGGA | -0.299
CAAAATGG | -0.0352
CCGCGACG | -0.218
CGAGCGCG | -0.0947
ACCGCGCT | -0.0352
GAAATCAA | 0.139
ACCTCCCC | -0.292

Sequence | binding signal [E-score]
AGTCGGAG | -0.182
ACAACTGT | 0.0673
CAAGAAAA | 0.0292
GGGGGTAA | -0.188
CGTGGATC | -0.192
GAATTAGC | 0.123
AAGAGATT | -0.055
GAGCGTAA | 0.065
ACTAGGGA | 0.0211
TCCGAGGA | -0.172
CCATCTAC | 0.213
AAACCCCT | -0.251
ACGTTTAG | 0.12
AACCGGCC | -0.171
TCCCGACA | -0.0467
ATGAACGA | -0.0028
CTACGTCA | -0.162
AAGGTTAT | -0.0408
ATCAGGAT | -0.169
ATGCCACA | -0.0438
ATGAACTC | -0.191
CTGAGCCC | -0.236
AGTCCGTC | -0.163
CTCAGTGC | -0.103
ATAAACGA | 0.114

Sequence | binding signal [E-score]
GGTAGAAA | 0.465
GACCTCTA | -0.236
AGGAACAG | -0.0365
TACGTAGA | 0.296
CGACGGCA | -0.168
GGGCTTCA | -0.173
AACGGTCC | -0.145
CACATTCA | -0.0844
TAACCTAA | 0.0496
ACGTTTCG | -0.085
ATTCGCGG | -0.0504
CAGCACCA | -0.164
AGGAATAT | 0.14
TTTTAAAA | 0.148
AAACATAG | 0.192
GGTCTTGA | -0.234
ATTCGTGC | 0.0911
GATACAAA | 0.3
ATATCGCA | 0.144
AGCCTCCG | -0.336
AGCGAACA | -0.011
AGTACTTA | 0.355
GTCTGAGA | -0.0892
CGAAAGGC | -0.176
GACAAATA | 0.111

Sequence | binding signal [E-score]
CCCTATAC | 0.104
AAGGATAT | 0.0361
CTATCTGC | -0.128
CACCGCTA | -0.0974
AATCTCTA | 0.185
ACGCTATA | 0.0732
ACTTTGCC | -0.059
ACCGCGTA | -0.125
CATTATTA | 0.27
GAAAGGTC | -0.194
CACATGAG | 0.125
CACCTACG | 0.0265
CAGGTTTC | -0.126
CAAACTAG | 0.287
CGGGGACC | -0.403
CATCTGTA | 0.195
AAATTGGC | 0.0866
CTGGGGCC | -0.271
AAGCAAAA | 0.11
GGAACACA | -0.122
GACTTACA | -0.108
TAATAATA | 0.424
CCCTATAG | -0.2
ACAGTAGT | 0.258
CCTCACGA | -0.145

Sequence | binding signal [E-score]
CCGTTATC | 0.0677
GACACTCA | -0.00184
GGAAAGTA | 0.298
CACCAGTA | 0.00682
CGAAGCAC | -0.116
GAGGTTCA | -0.344
CGGCCTCA | -0.148
AAGGTAGT | 0.33
ACCAGTTA | 0.105
ATTCAATA | 0.0997
TCTGATAA | 0.0829
AGAGACCC | -0.126
ATGGACAT | 0.0565
AAACAAGC | -0.101
CACGCAAC | -0.0353
CCACCAAG | -0.201
ATTTCCTG | 0.203
GTCAGGTA | 0.0855
CCCACAGC | -0.194
ATTGAAGA | 0.0335
ACAAAAGT | 0.225
AAGTGTCA | -0.206
AAATGAAC | 0.0632
CTACTCGC | 0.0199
CGCTATAG | 0.161

Sequence | binding signal [E-score]
AACCTGCA | -0.141
ACATAAGC | 0.0497
GCATTTAC | 0.159
AGATGTGC | 0.0955
ATTCCTCG | 0.0392
CGATCATC | -0.173
AGTCACAC | -0.0434
AGTGTCAA | 0.124
CGTCATAG | -0.029
AGTCCTAG | -0.104
CCCGGGAA | -0.0921
ATCCGCTG | 0.0373
AAGTATCG | 0.117
ATTATCAA | 0.242
ACGCAGGG | -0.121
GAACGCAC | -0.0666
ATCGGATA | 0.14
AAGTCCGC | -0.00103
GGGAGGAC | -0.256
AATCCACT | -0.106
AGTACTGA | 0.234
CCTGAGTC | -0.225
CAGAAGCA | -0.0414
CGCTCATC | -0.334
CCCTCCTC | -0.342

Sequence | binding signal [E-score]
CACTTCGG | -0.259
ACGCTCGG | -0.182
GTCCAGCA | -0.0608
AGCCCTGC | -0.217
GACCCGCA | -0.105
AACAGGAG | -0.0395
ATGCAAAG | -0.14
CGATCCCA | -0.00235
GTAGAAAC | 0.435
TACCTACA | 0.269
TCCAAGCA | -0.0894
AGCCCAAT | -0.00808
ATAAGACC | -0.0211
TATGTGAA | 0.236
AATGGCAC | -0.0703
ACAAGGTA | 0.102
CACAGGTA | -0.0357
CGCCAACC | -0.101
ACCTAGCT | -0.0218
